“And” between values parts separate entries of the source, which are not always exact repeats. Equal values may be shown once.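 Exposure lasted 48 hours, with cells grown in 96-well plates and compounds tested at five concentrations. Abbreviation: GI50, concentration required for 50% inhibition of growth. At the TGI there is no net growth.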
System: NCI-H322M lung
Assay: NCI-60 cell line screen, 48 h

CC(C)(C)OC(=O)NCC(=O)N(CCc1ccc(Cl)c(Cl)c1)CCN1CCCC1
TGI: 40 µM

Cc1cccc2c(N=Nc3ccccc3[N+](=O)[O-])c(O)[nH]c12
TGI: 63.3 µM

CC(=O)OC1CC2C(C)(C)OC(=O)CC(OC(C)=O)[C@]2(C)C2CCC3(C)C(=CCC3c3ccoc3)[C@]12C (stereo partly drawn)
TGI: > 100 µM

N#CSCC1CC(O)(c2ccccc2)CC(c2ccc(Cl)cc2)O1 (stereo not drawn)
GI50: 4.98 µM
TGI: 19.1 µM

C[C@@H]1CC[C@@H]2[C@@H]1[C@H](OC(=O)c1ccc3ccccc3c1)[C@]1(C3CCCCC3)C[C@@H](OC(=O)CO)[C@@]2(C)O1
GI50: 15.2 µM
TGI: 29 µM

COc1ccc(OC)c([N+](=O)[O-])c1-c1nc2sc(C)c(C)n2c1/C=N/N=C(N)N
TGI: > 100 µM

CCOC(=O)C1=C(C)N(NC(=O)OC)C2(N)N(NC(=O)OC)C(C)=C(C(=O)OCC)C12C#N (stereo not drawn)
TGI: > 100 µM

OCc1ncc(-c2ccccc2)s1
GI50: > 100 µM
TGI: > 100 µM

COc1ccc(C(c2cc(OC)c(OC)c(OC)c2)N2C(=O)CCC2C(=O)O)cc1 (stereo not drawn)
TGI: > 100 µM

Cc1ncc([N+](=O)[O-])n1CCNC(=O)Cn1ccnc1[N+](=O)[O-]
TGI: > 100 µM

Cc1cc(C)nc(NS(=O)(=O)c2ccc(Nc3nnc(/C=C/c4c(O)ccc5ccccc45)c(=O)n3N)cc2)n1
TGI: > 100 µM

COc1cc2oc(-c3cccc(C(=O)Nc4ccc(C)cc4)c3)cc(=O)c2c(OC)c1OC
GI50: 3.82 µM
TGI: > 100 µM

Nc1ccc(S(=O)(=O)NCCS(=O)(=O)O)cc1
TGI: > 100 µM

C=C1[C@@H](O)C[C@H]2C(C)(C)C[C@H](Cl)C[C@]2(C)[C@H]1C[C@H](O)[C@H]1CC(=O)NC1=O
GI50: < 0.01 µM
TGI: 0.199 µM

CN(C(=O)c1cc2c(s1)sc1c(=O)n(C)c3ccccc3c12)c1ccccc1
TGI: > 100 µM

Cc1cccc(/C=C2/C(=O)Nc3ccccc32)n1
TGI: 27.4 µM

C=CCN1C(=O)/C(=C/c2ccc(OC)cc2)N=C1SC1OC(COC(C)=O)C(OC(C)=O)C(OC(C)=O)C1OC(C)=O (stereo not drawn)
GI50: 16.3 µM and 44 µM
TGI: 30 µM and > 100 µM

O=C(CSc1nc2ccc(I)cc2c(=O)n1Cc1ccccc1)NN1C(=O)CSC1c1ccccc1 (stereo not drawn)
TGI: > 100 µM

CNc1cccc2c1C(C)C[C@]1(C)C(=O)Nc3ccccc3[C@H]21 (stereo partly drawn)
TGI: 72.8 µM

c1ccc2c(-c3cnn4cc(-c5ccc(N6CCNCC6)cc5)cnc34)ccnc2c1
GI50: 1.16 µM
TGI: 2.54 µM

COC(=O)/C=C/C(=O)Nc1cc(Cl)c(Cl)cc1CC(=O)N(C)[C@H]1CCCC[C@@H]1N1CCCC1
TGI: 30.7 µM

C=C(CN(C)Cc1ccccc1)c1ccc(C(=O)Nc2ccccc2N)cc1
GI50: 5.05 µM
TGI: 24.2 µM

CCCCCCCCc1ccc(CCC(N)(CO)CO)cc1
GI50: 3.14 µM
TGI: 10.4 µM

Cc1ccc(S(=O)(=O)OI(O)CC(F)(F)F)cc1
TGI: > 100 µM

O=C(O)c1cc2cc(O)ccc2[nH]1
GI50: > 100 µM
TGI: > 100 µM

O=C1[C@@H]2C(c3ccncc3)=NO[C@@H]2C(=O)N1c1ccc(Cc2ccc(N3C(=O)[C@H]4C(c5ccncc5)=NO[C@H]4C3=O)cc2)cc1
TGI: > 100 µM

N/N=C(/CC(O)(C(F)(F)F)C(F)(F)F)c1ccccc1
TGI: > 10 µM

C[N+]1(C)C/C(=C\c2ccc(O)cc2)C(=O)/C(=C/c2ccc(O)cc2)C1
TGI: > 100 µM

O=c1[nH]cc(COCC(O)CO)c(=O)[nH]1 (stereo not drawn)
TGI: > 100 µM

CC[C@H]1C=CCC[C@@]2(C[C@@H]3CC[C@H]4[C@@H](C(=O)OCCCCCCCCCCCCCCCC(=O)N(CCCNC(C)=O)C[C@H](CCNC(C)=O)OC(C)=O)[C@@]5(CCC[C@@H](C)O5)NC(=[N+]34)N2)O1
TGI: 3.08 µM

O=C(NN1C(=O)C(Cl)C1c1cccc(Cl)c1)c1ccccc1O (stereo not drawn)
TGI: > 100 µM

CN1C(=O)C(C#N)C2C[C@@]1(C)Oc1ccccc12 (stereo partly drawn)
TGI: > 100 µM

Clc1ccc(N/N=C(\c2ccccc2)c2ccccn2)nc1
GI50: 0.083 µM
TGI: > 100 µM and 39 µM

CC(C(=O)O)C1Nc2ccccc2NC1=O (stereo not drawn)
TGI: > 100 µM

CC(=O)OC1CC2(O)C(CCC3(C)C(c4ccc(=O)oc4)CCC32O)C2(C)CCC(OC3OC(CO)C(O)C(O)C3O)C=C12 (stereo not drawn)
GI50: 0.0275 µM
TGI: 0.0951 µM

CNC(=O)OCc1nc(N=[N+]=[N-])n(C)c1COC(=O)NC
TGI: > 100 µM

N=C1N=C(N)S/C1=C\c1ccc2ncccc2c1
GI50: > 25 µM
TGI: > 25 µM

CCOc1ccc(N=Nc2ccc(-c3ccc(N=Nc4c(O)ccc5cc(S(=O)(=O)O)cc(S(=O)(=O)O)c45)cc3)cc2)cc1
TGI: > 100 µM

CC(CC(C)[C@H]1CCC2[C@H]3C(CC(=O)[C@@]21C)[C@@]1(C)CCC(O)C[C@H]1C[C@@H]3O)C(=O)O (stereo partly drawn)
TGI: > 100 µM

COC(=O)/C(C#N)=C(/NCc1ccccc1)Nc1ccccc1
TGI: > 100 µM

Cc1cccc(Cl)c1NC(=O)c1cccc([N+](=O)[O-])c1O
TGI: > 100 µM

CC1(C)N([O-])[N+](=O)C1(Br)c1ccccc1 (stereo not drawn)
TGI: > 100 µM

CCOC(=O)N1CCc2cc(OC)c(OC)cc2/C1=C/c1ccc(OC)c(OC)c1
TGI: > 100 µM

O=S1(=O)c2ccccc2-c2nccc3ccnc1c23
TGI: > 100 µM

Cn1nc(S(N)(=O)=O)s/c1=N/S(=O)(=O)c1ccc(N)cc1
TGI: > 100 µM

CC(C)c1ccc(/C=N/N=C(N)N)cc1
GI50: 13.1 µM
TGI: 28.2 µM

C=CCN(N=O)C(=O)N(CCCCC(NC(C)=O)C(=O)NCc1ccccc1)Cc1ccccc1 (stereo not drawn)
TGI: > 100 µM

CN(N=O)C(=O)Nc1ccc(C(=O)O)cc1
TGI: > 100 µM

CC(C)C[C@H]1C(=O)N2CCC[C@H]2[C@]2(O)O[C@](NC(=O)[C@@H]3C=C4c5cccc6[nH]c(Br)c(c56)C[C@H]4N(C)C3)(C(C)C)C(=O)N12
TGI: > 100 µM

CC(C)=CC[C@H]1C[C@@]2(CC=C(C)C)C(=O)/C(=C(/O)c3ccccc3)C(=O)[C@](CC=C(C)C)(C2=O)C1(C)C
TGI: 20.6 µM

CC1NCCc2c1[nH]c1cc(O)ccc21 (stereo not drawn)
TGI: > 100 µM

COc1cc(/C=C2\C(=O)N(c3ccc(NC(C)=O)cc3)C(c3ccccc3)S2(=O)=O)cc(OC)c1OC (stereo not drawn)
TGI: > 100 µM

Cc1ccccc1C1CC(=O)CC(c2ccccc2C)C12C(=O)NC(=S)NC2=O (stereo not drawn)
TGI: > 100 µM

CC(C)(C)OC(=O)NC(Cc1ccc(OCc2ccccc2)cn1)C(=O)O (stereo not drawn)
TGI: > 100 µM

C/C(CC(=O)Nc1ccccc1)=N\NC(N)=S
TGI: > 100 µM

COC(=O)[C@@H]1[C@H](O)[C@H](C)[C@H](O)[C@H](C)/C=C\C=C(C)C(=O)Nc2c(C)c(OC(C)=O)c3c(c2O)C(=O)C(C)=C2OCOC(=C23)C(C)=C[C@@](C)(O)[C@H](O)[C@@H](C)[C@H]1OC(C)=O
TGI: > 100 µM

COc1ccc(Nc2ncc(-c3ccccc3)o2)cc1OC
GI50: 10.5 µM
TGI: > 25 µM

COc1ccc(/C(=C\c2cc(OC)c(OC)c(OC)c2)C(=O)O)cc1
TGI: > 100 µM

O=C1OC(C2Cc3ccc4c(c3C2=O)CCCC4)c2ccccc21 (stereo not drawn)
TGI: > 100 µM

COC(=O)/C=C1/OC(c2ccc(C)cc2C)=CC1=O
TGI: 35.3 µM

O=c1cc(-c2ccc3ccccc3c2)[nH]c2ncccc12
TGI: > 100 µM

Cc1cc(Cl)ccc1N1C(=O)C(=O)C(c2nc3ccccc3o2)C(=O)C1=O
TGI: > 100 µM

CC1CN=C(NS(=O)(=O)c2cc(C(=O)Nc3ccccc3)c(Cl)cc2S)NN1 (stereo not drawn)
TGI: > 100 µM

CNC12C3C4C1C1C2C3C41C(=O)N[C@H](C(=O)N(C)[C@H](C[C@@H](OC(C)=O)c1nc(C(=O)N[C@@H](Cc2ccccc2)C[C@H](C)C(=O)OC)cs1)C(C)C)C1CC1 (stereo partly drawn)
GI50: 0.768 µM
TGI: > 15 µM

C[n+]1cc2cc3c(cc2c2ccccc21)OCO3
GI50: 3.5 µM
TGI: 24.7 µM

CCP(C)(C)=O
TGI: > 100 µM
